# In the supplement of paper PMC8728848:
# Some of the results follow.
# Assays:
# Assay in all cases: glycan array binding signal (z-score within array); higher = stronger binding
# Conditions in all cases: glycan notation: IUPAC condensed, linker removed
# [1] = target: GlcNAc(b1-4)GlcNAc(b1-4)GlcNAc(b1-4)GlcNAc(b1-4)GlcNAc
# Summary of the method: (§1)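 Glycan array data were curated from 3228 arrays in the Consortium for Functional Glycomics database and kept only where the protein sequence was available. Glycan names were converted to IUPAC-condensed notation, and columns mapping to the same glycan were averaged. The binding signal is a within-array Z-score, averaged across arrays of the same protein sequence at different concentrations or buffers and across linkers. Negative Z-scores can be read as non-binding.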
# [2] = target: GlcNAc(b1-4)GlcNAc(b1-4)GlcNAc(b1-4)GlcNAc(b1-4)GlcNAc(b1-4)GlcNAc
# Summary of the method: as §1
# [3] = target: GlcNAc(b1-4)[GlcNAc(b1-6)]GalNAc
# Summary of the method: as §1
# [4] = target: GlcNAc(b1-6)Gal(b1-4)GlcNAc
# Summary of the method: as §1
# GlcNAc(b1-6)GalNAc = target: GlcNAc(b1-6)GalNAc
# Summary of the method: as §1
# [5] = target: GlcNAc6S(b1-3)Gal(b1-4)GlcNAc
# Summary of the method: as §1
# Kdn(a2-3)Gal(b1-3)GalNAc = target: Kdn(a2-3)Gal(b1-3)GalNAc
# Summary of the method: as §1
# Kdn(a2-3)Gal(b1-3)GlcNAc = target: Kdn(a2-3)Gal(b1-3)GlcNAc
# Summary of the method: as §1
# Kdn(a2-3)Gal(b1-4)Glc = target: Kdn(a2-3)Gal(b1-4)Glc
# Summary of the method: as §1
# Kdn(a2-3)Gal(b1-4)GlcNAc = target: Kdn(a2-3)Gal(b1-4)GlcNAc
# Summary of the method: as §1
# [6] = target: Kdn(a2-3)Gal(b1-4)[Fuc(a1-3)]GlcNAc
# Summary of the method: as §1
# Kdn(a2-6)Gal(b1-4)GlcNAc = target: Kdn(a2-6)Gal(b1-4)GlcNAc
# Summary of the method: as §1
# [7] = target: Man(a1-2)Man(a1-2)Man(a1-3)Man
# Summary of the method: as §1
# [8] = target: Man(a1-2)Man(a1-2)Man(a1-6)[Man(a1-3)]Man
# Summary of the method: as §1
# Man(a1-2)Man(a1-3)Man = target: Man(a1-2)Man(a1-3)Man
# Summary of the method: as §1
# [9] = target: Man(a1-2)Man(a1-3)[Man(a1-2)Man(a1-6)]Man
# Summary of the method: as §1
# [10] = target: Man(a1-2)Man(a1-3)[Man(a1-2)Man(a1-6)]Man(a1-6)[Man(a1-2)Man(a1-2)Man(a1-3)]Man
# Summary of the method: as §1
# [11] = target: Man(a1-2)Man(a1-3)[Man(a1-2)Man(a1-6)]Man(a1-6)[Man(a1-2)Man(a1-2)Man(a1-3)]Man(b1-4)GlcNAc(b1-4)GlcNAc
# Summary of the method: as §1
# [12] = target: Man(a1-2)Man(a1-3)[Man(a1-6)]Man(a1-6)[Man(a1-2)Man(a1-3)]Man(b1-4)GlcNAc(b1-4)GlcNAc
# Summary of the method: as §1
# [13] = target: Man(a1-2)Man(a1-6)[Man(a1-3)]Man(a1-6)[Man(a1-2)Man(a1-2)Man(a1-3)]Man
# Summary of the method: as §1
# [14] = target: Man(a1-2)Man(a1-6)[Man(a1-3)]Man(a1-6)[Man(a1-2)Man(a1-2)Man(a1-3)]Man(b1-4)GlcNAc(b1-4)GlcNAc
# Summary of the method: as §1
# Man(a1-3)[Man(a1-6)]Man = target: Man(a1-3)[Man(a1-6)]Man
# Summary of the method: as §1
# [15] = target: Man(a1-3)[Man(a1-6)]Man(a1-6)[Man(a1-2)Man(a1-3)]Man(b1-4)GlcNAc(b1-4)GlcNAc
# Summary of the method: as §1
# [16] = target: Man(a1-3)[Man(a1-6)]Man(a1-6)[Man(a1-3)]Man
# Summary of the method: as §1
# [17] = target: Man(a1-3)[Man(a1-6)]Man(a1-6)[Man(a1-3)]Man(b1-4)GlcNAc(b1-4)GlcNAc
# Summary of the method: as §1
# [18] = target: Man(a1-3)[Man(a1-6)]Man(b1-4)GlcNAc(b1-4)GlcNAc
# Summary of the method: as §1
# [19] = target: Man(a1-3)[Man(a1-6)]Man(b1-4)GlcNAc(b1-4)[Fuc(a1-6)]GlcNAc
# Summary of the method: as §1
# Man(a1-6)Man = target: Man(a1-6)Man
# Summary of the method: as §1
# Man(b1-4)GlcNAc = target: Man(b1-4)GlcNAc
# Summary of the method: as §1
# MurNAc(b1-4)GlcNAc = target: MurNAc(b1-4)GlcNAc
# Summary of the method: as §1
# Neu5Ac(a2-3)Gal = target: Neu5Ac(a2-3)Gal
# Summary of the method: as §1
# [20] = target: Neu5Ac(a2-3)Gal(b1-3)GalNAc
# Summary of the method: as §1
# [21] = target: Neu5Ac(a2-3)Gal(b1-3)GalNAc(b1-3)Gal(a1-4)Gal(b1-4)Glc
# Summary of the method: as §1
# [22] = target: Neu5Ac(a2-3)Gal(b1-3)GalNAc(b1-4)Gal(b1-4)Glc
# Summary of the method: as §1
# [23] = target: Neu5Ac(a2-3)Gal(b1-3)GalNAc(b1-4)[Neu5Ac(a2-3)]Gal(b1-4)Glc
# Summary of the method: as §1
# [24] = target: Neu5Ac(a2-3)Gal(b1-3)GalNAc(b1-4)[Neu5Ac(a2-8)Neu5Ac(a2-3)]Gal(b1-4)Glc
# Summary of the method: as §1
# [25] = target: Neu5Ac(a2-3)Gal(b1-3)GalNAc6S
# Summary of the method: as §1
binder,measurement,setting,value
"Siglec-E (Mus musculus), Q91Y57 (protein) MLLLLLLLLLWGIKGVEGQNPQEVFTLNVERKVVVQEGLCVLVPCNFSYLKKRLTDWTDSDPVHGFWYREGTDRRKDSIVATNNPIRKAVKETRNRFFLLGDPWRNDCSLNIREIRKKDAGLYFFRLERGKTKYNYMWDKMTLVVTALTNTPQILLPETLEAGHPSNLTCSVPWDCGWTAPPIFSWTGTSVSFLSTNTTGSSVLTITPQPQDHGTNLTCQVTLPGTNVSTRMTTRLNVSYAPKNLTVTIYQGADSVSTILKNGSSLPISEGQSLRLICSTDSYPPANLSWSWDNLTLCPSKLSKPGLLELFPVHLKHGGVYTCQAQHALGSQHISLSLSPQSSATLSEMMMGTFVGSGVTALLFLSVCILLLAVRSYRRKPARPAVVAPHPDALKVSVSQNPLVESQADDSSEPLPSILEAAPSSTEEEIHYATLSFHEMKPMNLWGQQDTTTEYSEIKFPQRTAWP",glycan array binding signal (z-score),[1],-0.319
same,glycan array binding signal (z-score),[2],-0.645
same,glycan array binding signal (z-score),[3],-0.418
same,glycan array binding signal (z-score),[4],-0.305
same,glycan array binding signal (z-score),GlcNAc(b1-6)GalNAc,-0.207
same,glycan array binding signal (z-score),[5],-0.437
same,glycan array binding signal (z-score),Kdn(a2-3)Gal(b1-3)GalNAc,-0.459
same,glycan array binding signal (z-score),Kdn(a2-3)Gal(b1-3)GlcNAc,-0.25
same,glycan array binding signal (z-score),Kdn(a2-3)Gal(b1-4)Glc,0.059
same,glycan array binding signal (z-score),Kdn(a2-3)Gal(b1-4)GlcNAc,-0.424
same,glycan array binding signal (z-score),[6],0.226
same,glycan array binding signal (z-score),Kdn(a2-6)Gal(b1-4)GlcNAc,-0.105
same,glycan array binding signal (z-score),[7],-0.422
same,glycan array binding signal (z-score),[8],-0.341
same,glycan array binding signal (z-score),Man(a1-2)Man(a1-3)Man,0.246
same,glycan array binding signal (z-score),[9],-0.477
same,glycan array binding signal (z-score),[10],-0.181
same,glycan array binding signal (z-score),[11],-0.574
same,glycan array binding signal (z-score),[12],-0.61
same,glycan array binding signal (z-score),[13],-0.285
same,glycan array binding signal (z-score),[14],-0.01
same,glycan array binding signal (z-score),Man(a1-3)[Man(a1-6)]Man,0.027
same,glycan array binding signal (z-score),[15],-0.246
same,glycan array binding signal (z-score),[16],-0.31
same,glycan array binding signal (z-score),[17],0.047
same,glycan array binding signal (z-score),[18],-0.416
same,glycan array binding signal (z-score),[19],-0.179
same,glycan array binding signal (z-score),Man(a1-6)Man,0.619
same,glycan array binding signal (z-score),Man(b1-4)GlcNAc,-0.501
same,glycan array binding signal (z-score),MurNAc(b1-4)GlcNAc,-0.464
same,glycan array binding signal (z-score),Neu5Ac(a2-3)Gal,-0.19
same,glycan array binding signal (z-score),[20],2.27
same,glycan array binding signal (z-score),[21],-0.278
same,glycan array binding signal (z-score),[22],-0.112
same,glycan array binding signal (z-score),[23],-0.181
same,glycan array binding signal (z-score),[24],0.68
same,glycan array binding signal (z-score),[25],0.425
